{
  "source": "PubChem BioAssay AID463173",
  "about": "(ICCB-Longwood Screening Facility, Harvard Medical School, 2010)",
  "note": "Out of some 52,000 compounds screened, about 1,700 (3.3%) were called active. Cut-off read from the data, not from the text of the source: active = survival mostly below about 52% (no sharp cut-off); inactive = mostly above about 56%. Some of the results follow.",
  "data": [
    {"tested_on": "Wild type", "experiment": "growth inhibition of S. aureus wild type versus tarO mutant, primary screen, teichoic acid synthesis inhibitors, RN4220, OD600 (AID 463173)", "conditions": "S. aureus RN4220 wild type/DeltatarO growth, OD600, 18 h, hits give low values, screened at 18.75 µg/mL (by protocol)", "values": [
      {"smiles": "CCOC(=O)c1ccc(NC(=O)Cc2ccc(-n3c(CC)nc4cccnc43)cc2)cc1", "survival": "inactive: 86%"},
      {"smiles": "Oc1ccc(Cl)cc1Nc1nc2ccccc2n2cnnc12", "survival": "inactive: 90%"},
      {"smiles": "COc1ccccc1N(Cc1cc2cccc(C)c2[nH]c1=O)C(=O)c1cccc(Cl)c1", "survival": "inactive: 109%"},
      {"smiles": "Cc1oc(C2CC2)cc1C(=O)O", "survival": "inactive: 125%"},
      {"smiles": "COc1ccc(CCn2c3c(c(=O)[nH]c2=O)C(NC(=O)c2ccccc2)(C(F)(F)F)C(=O)N3)cc1OC", "note": "(centres undefined)", "survival": "inactive: 72%"},
      {"smiles": "O=C(CSc1nc2ccccc2n1Cc1ccccc1)Nc1ccccn1", "survival": "inactive: 113%"},
      {"smiles": "CCNC(=O)CC1C(=O)N(c2ccc(C)cc2)C(=O)N1Cc1ccc(C)cc1", "note": "(centres undefined)", "survival": "inactive: 82%"},
      {"smiles": "O=C(CCS(=O)(=O)c1ccc2c(c1)NC(=O)CO2)Nc1cccc(C(F)(F)F)c1", "survival": "inactive: 84%"},
      {"smiles": "COc1ccc(NC(=O)Cn2nnc(C(=O)NCc3ccccc3Cl)c2N)cc1Cl", "survival": "inactive: 53%"},
      {"smiles": "NC(=O)c1cc(S(=O)(=O)N2CCCCC2)cs1", "survival": "inactive: 92%"},
      {"smiles": "CCn1cc(S(=O)(=O)c2cc(C)cc(C)c2)c(=O)c2cc(F)c(N3CCC(C)CC3)cc21", "survival": "inactive: 57%"},
      {"smiles": "Cc1ccc2nc(-c3ccc(C)c(NC(=O)CSc4ccc(Cl)cc4)c3)oc2c1", "survival": "inactive: 73%"},
      {"smiles": "CCOc1ccc(N(C(=O)c2ccc(C)cc2)S(=O)(=O)c2ccc3c(c2)n(C)c(=O)n3C)cc1", "survival": "inactive: 81%"},
      {"smiles": "O=C(NCc1ccc(Cl)cc1)c1cc2ccccc2o1", "survival": "inactive: 85%"},
      {"smiles": "Cc1ccc(C)n1-c1nnc(N2CCCC(C(=O)NCc3ccc(F)cc3)C2)s1", "note": "(centres undefined)", "survival": "inactive: 88%"},
      {"smiles": "Cc1ccc(Cl)cc1N1CCN(C(=O)Cn2cnc3nc4c(cc3c2=O)CCCC4)CC1", "survival": "inactive: 74%"},
      {"smiles": "N#C/C(=C\\c1cn(CCOc2ccccc2F)c2ccccc12)C(=O)NC1CC1", "survival": "inactive: 107%"},
      {"smiles": "Cc1ccc2cccc(NC(=O)c3ccc(-c4cc(Cl)ccc4Cl)o3)c2n1", "survival": "inactive: 71%"},
      {"smiles": "O=C(NCc1cccc(Br)c1)c1cccn1-c1nnc(N2CCCCC2)s1", "survival": "inactive: 73%"},
      {"smiles": "CCN(CC)C(=O)Cn1c(=O)n(CCCCCC(=O)NCc2ccccc2Cl)c(=O)c2sccc21", "survival": "inactive: 128%"},
      {"smiles": "COc1ccc(OC)c(NC(=O)c2ccc3c(c2)c(C)c(C)n3Cc2ccc(F)cc2)c1", "survival": "inactive: 127%"},
      {"smiles": "Cc1ccc(C(=O)Nc2nc3n(n2)C(c2ccccc2)C=C(c2ccccc2)N3)cc1", "note": "(centres undefined)", "survival": "inactive: 61%"},
      {"smiles": "Cc1ccc(NC(=O)Cn2c(C)cc(C)c(C#N)c2=O)cc1F", "survival": "inactive: 83%"},
      {"smiles": "Cc1cc(C)c(/C=C/c2onc(C)c2S(=O)(=O)N2CCC(C(=O)N3CCN(c4ccc(Cl)cc4)CC3)CC2)c(C)c1", "survival": "inactive: 83%"},
      {"smiles": "Cn1nnc(C(O)CNCc2ccc(F)cc2)n1", "note": "(centres undefined)", "survival": "inactive: 106%"},
      {"smiles": "Cc1ccc(NC(=O)CCNS(=O)(=O)c2cccc3nsnc23)cc1", "survival": "inactive: 64%"},
      {"smiles": "CC1CCc2onc(C(=O)N3CCN(c4cccc(C(F)(F)F)c4)CC3)c2C1", "note": "(centres undefined)", "survival": "active: 10%"},
      {"smiles": "COc1ccc(-c2nc3ccccc3s2)cc1NC(=O)c1cc2ccccc2o1", "survival": "inactive: 62%"},
      {"smiles": "CN(CC(=O)Nc1ccc(F)cc1F)S(=O)(=O)c1ccc(C(=O)N2CCOCC2)s1", "survival": "inactive: 75%"},
      {"smiles": "CCOc1ccc(-c2nonc2NC(=O)c2ccc(C)cc2)cc1OCC", "survival": "inactive: 117%"},
      {"smiles": "CN1CCN(C(c2cccc(Br)c2)c2sc3nc(-c4ccco4)nn3c2O)CC1", "note": "(centres undefined)", "survival": "inactive: 82%"},
      {"smiles": "CCC(=O)N1CCc2cc(Br)cc(S(=O)(=O)CCC(=O)NCCc3ccccc3Cl)c21", "survival": "inactive: 77%"},
      {"smiles": "CCOc1ccc(-c2nc(SCC(=O)Nc3ccc4c(c3)OCCO4)c(-c3ccc(F)cc3)[nH]2)cc1", "survival": "inactive: 86%"},
      {"smiles": "O=C(Cc1csc2ccccc12)NCc1ccccc1F", "survival": "inactive: 87%"},
      {"smiles": "Clc1ccc2nc(-c3ccc(Br)o3)c(Nc3ccc4c(c3)OCCO4)n2c1", "survival": "inactive: 93%"},
      {"smiles": "COc1cccc(OC)c1C(=O)Nc1cccc(-c2nc3cc(C)cc(C)c3o2)c1", "survival": "inactive: 69%"},
      {"smiles": "COc1ccc(NC(=O)c2noc3c2CSc2ccccc2-3)cc1Cl", "survival": "inactive: 95%"},
      {"smiles": "CCC(=O)OCCCNc1nc(-c2ccc(Cl)cc2)nc2ccccc12", "survival": "active: -2%"},
      {"smiles": "CC(=O)N1CCCc2cc(S(=O)(=O)N3CCN(c4ccc(F)cc4)CC3)ccc21", "survival": "inactive: 79%"},
      {"smiles": "CCc1cccc(-n2nnc(-c3nc(-c4cccs4)no3)c2N)c1", "survival": "inactive: 95%"},
      {"smiles": "O=C(Cn1nc(Cc2cccnc2)c2ccccc2c1=O)Nc1cccc(C(F)(F)F)c1", "survival": "inactive: 66%"},
      {"smiles": "COc1ccc(S(=O)(=O)N(C)Cc2nc(-c3cccc(C)c3)no2)cc1", "survival": "inactive: 74%"},
      {"smiles": "O=C(CSc1nc2ccsc2c(=O)n1Cc1ccccc1F)NCc1ccccc1", "survival": "inactive: 124%"},
      {"smiles": "O=C1CCC(=O)N1CNC1CCCCC1", "survival": "inactive: 106%"},
      {"smiles": "CC(C)OC(=O)C(N)c1ccccc1", "note": "(centres undefined)", "survival": "inactive: 95%"},
      {"smiles": "CCc1ccc(NC(=O)CN2C(=O)C(c3ccccc3)=NC23CCCCCC3)cc1", "survival": "inactive: 75%"},
      {"smiles": "CCc1ccc(NC(=O)N(Cc2ccc(C)cc2)Cc2cccn2-c2nnc(N3CCCC3=O)s2)cc1", "survival": "inactive: 121%"},
      {"smiles": "CCOC(=O)c1ccc(NC(=O)c2cc(=O)c3cc(CC)ccc3o2)cc1", "survival": "inactive: 83%"},
      {"smiles": "CCCCc1ccc(NC(=O)COc2cccc3c(=O)n(C)ccc23)cc1", "survival": "inactive: 83%"},
      {"smiles": "CC(OC(=O)Cc1c[nH]c2ccccc12)C(=O)NC1CCCC1", "note": "(centres undefined)", "survival": "inactive: 97%"},
      {"smiles": "Cc1ccc2nc(CSc3nnc(NC(=O)COc4ccccc4)s3)cc(=O)n2c1", "survival": "inactive: 63%"},
      {"smiles": "CCOC(=O)c1c(C)c(-c2ccccc2)n(CC(=O)NCCc2ccc(C)cc2)c1C", "survival": "inactive: 87%"},
      {"smiles": "Cc1ccc(NC(=O)C2CCCN(c3nnc(-n4c(C)ccc4C)s3)C2)cc1Cl", "note": "(centres undefined)", "survival": "inactive: 78%"},
      {"smiles": "COc1cccc(CNC(=O)C(NS(=O)(=O)c2ccc3nc(C)sc3c2)C(C)C)c1", "note": "(centres undefined)", "survival": "inactive: 89%"},
      {"smiles": "Cc1ccc(NC(=O)N2CCC(CN3CCC(C)CC3)CC2)cc1F", "survival": "inactive: 82%"},
      {"smiles": "COc1ccc(-c2cc(C(F)(F)F)nc(SCC(=O)NCCc3ccc(OC)c(OC)c3)n2)cc1", "survival": "inactive: 70%"},
      {"smiles": "CCCc1cc(=O)n2[nH]c(-c3ccc(C)cc3)nc2n1", "survival": "inactive: 84%"},
      {"smiles": "Clc1ccc(CNc2ccccn2)cc1", "survival": "inactive: 98%"},
      {"smiles": "Cc1cccc(NC(=O)CSc2nnc(C)c(=O)[nH]2)c1", "survival": "inactive: 101%"},
      {"smiles": "Cc1ccc(C(CC(=O)Nc2cc(C)cc(C)c2)N2Cc3ccccc3C2=O)cc1", "note": "(centres undefined)", "survival": "inactive: 78%"},
      {"smiles": "Cc1ccccc1CN1c2ccccc2-c2nc(SCC(=O)NCCc3ccccc3)ncc2S1(=O)=O", "survival": "inactive: 53%"},
      {"smiles": "CCN(CC)c1ccc(-n2nc3cc(C)c(NC(=O)c4ccccc4F)cc3n2)cc1", "survival": "inactive: 80%"},
      {"smiles": "CCS(=O)(=O)NCC(c1ccco1)N1CCN(c2ccc(OC)cc2)CC1", "note": "(centres undefined)", "survival": "inactive: 119%"},
      {"smiles": "Cc1ccccc1CSc1nnc2[nH]c(=O)cc(C)n12", "survival": "inactive: 77%"},
      {"smiles": "O=C(Cn1cc(S(=O)(=O)Cc2ccc(F)cc2)c2ccccc21)NCc1ccccc1Cl", "survival": "inactive: 127%"},
      {"smiles": "O=C(NCCCc1nc2ccccc2n1Cc1ccc(Cl)cc1)c1ccco1", "survival": "inactive: 120%"},
      {"smiles": "Cc1oc2ncn(CC(C)C)c(=O)c2c1C(=O)NCCCN(Cc1ccccc1)C(C)C", "survival": "inactive: 128%"},
      {"smiles": "CCOc1ccc(NC(=O)CSc2nnc(-c3ccc(C)cc3)c(-c3ccc(C)cc3)n2)cc1", "survival": "inactive: 115%"},
      {"smiles": "O=C(NC1CC(=O)N(c2ccc(Cl)cc2)C1)c1ccc(S(=O)(=O)N2CCCC2)cc1", "note": "(centres undefined)", "survival": "inactive: 127%"},
      {"smiles": "COc1ccc(-n2c(SCc3ccccc3F)nc3c([nH]c4ccccc43)c2=O)cc1", "survival": "inactive: 79%"},
      {"smiles": "CCOc1ccc(NC(=O)c2ccc(F)c(S(=O)(=O)NCc3ccc4c(c3)OCO4)c2)cc1", "survival": "inactive: 55%"},
      {"smiles": "CC(=O)Nc1ccc(S(=O)(=O)Nc2ccc3c(c2)OC(C)(C)O3)cc1", "survival": "inactive: 104%"},
      {"smiles": "CCOc1ccccc1NS(=O)(=O)c1cnc(N)nc1", "survival": "active: -3%"},
      {"smiles": "Cc1ccccc1N1CCN(S(=O)(=O)c2nnc(NC(=O)c3ccc(Cl)cc3)s2)CC1", "survival": "inactive: 80%"},
      {"smiles": "COc1ccc(CCNC(=O)C(=O)NCC(c2ccco2)S(=O)(=O)c2ccccc2)cc1OC", "note": "(centres undefined)", "survival": "inactive: 53%"},
      {"smiles": "COc1ccc(CCNC(=O)CS(=O)Cc2nc(-c3ccc(C)cc3)oc2C)c(OC)c1", "note": "(centres undefined)", "survival": "inactive: 77%"},
      {"smiles": "O=C(Cn1c(=O)nc(-c2ccccc2)c2ccccc21)NCCCc1ccccc1", "survival": "inactive: 60%"},
      {"smiles": "CCc1cccc(C)c1NC(=O)CSc1nnc(N)s1", "survival": "inactive: 72%"},
      {"smiles": "CCc1cccc(NCc2ccccc2-c2nnc(-c3ccccc3Cl)o2)c1", "survival": "inactive: 81%"},
      {"smiles": "COc1ccc(N2CCN(C(=O)CN(c3cccc(C(F)(F)F)c3)S(C)(=O)=O)CC2)cc1", "survival": "inactive: 110%"},
      {"smiles": "CCCC12CN3CC(C)(CN(C1)C3c1cn(C)c3ccccc13)C2=O", "note": "(centres undefined)", "survival": "inactive: 103%"},
      {"smiles": "CCn1c(CN2CCOCC2)nc2cc(NC(=O)c3cc(OC)c(OC)c(OC)c3)ccc21", "survival": "inactive: 83%"},
      {"smiles": "CSc1nn(Cc2ccc(Br)cc2)c(N(C(C)=O)C(C)=O)c1S(=O)(=O)c1ccccc1", "survival": "inactive: 45%"},
      {"smiles": "CC(=O)c1ccc(NC(=O)C2CCC(CNS(=O)(=O)c3ccc4c(c3)CCCC(=O)N4)CC2)cc1", "note": "(centres undefined)", "survival": "inactive: 45%"},
      {"smiles": "COc1ccc(-c2cc(C(=O)NCc3ccccc3)c3c(-c4ccccc4)[nH]nc3n2)cc1", "survival": "inactive: 78%"},
      {"smiles": "CC1CCN(C(=O)Cn2ncc3c4ccccc4n(Cc4ccc(Cl)cc4)c3c2=O)CC1", "survival": "inactive: 95%"},
      {"smiles": "COc1ccccc1N1CCN(C(=O)Cc2c(C(=O)O)c(C)cn2C)CC1", "survival": "active: -6%"},
      {"smiles": "CC(=O)c1ccc(NC(=O)c2cc(-c3ccc(Cl)c(Cl)c3)on2)cc1", "survival": "inactive: 78%"},
      {"smiles": "CCc1ccccc1NC(=O)C1CCCN(c2nnc(-n3c(C)ccc3C)s2)C1", "note": "(centres undefined)", "survival": "inactive: 75%"}
    ]}
  ]
}
